{"source": "patent US9782491B2", "about": "“Peptide conjugates for treating pain” (priority 2012, dated 2017)", "target": "CRMP2 (Homo sapiens, UniProt Q16555)", "experiment": "Isothermal titration calorimetry binding to CRMP2", "from_the_text": "EXAMPLE. […] L1 and [2014-2028]", "note": "Ends that are not written are not given here."}
{"sequence": "NSSFPSIHCSSWSEE [Ct-dis]", "values": [{"measurement": "difference in binding affinities between L1 and Ct-dis binding to CRMP2", "value": "5 to 7", "unit": "fold"}]}
